The shares of active, inactive and inconclusive entries below differ from those in the screen. For some assays here: Where the call is inconclusive, the potency comes from a doubtful curve fit. The source made the active and inactive calls. Unless noted, calls come from the whole dose curve; as a rule, active = well fitted curve in the direction sought with a large enough effect in the repeat runs; inconclusive = weak or mixed curves; inactive = no such curve, though single readings can be large; an effect the other way counts as inactive or inconclusive.
Tests used:
[1] = target: Glucocorticoid receptor (Homo sapiens) (UniProt P04150); assay: qHTS assay to identify small molecule antagonists of the glucocorticoid receptor (GR) signaling pathway (AID 720692; active = well fitted inhibition curve with a large enough effect in the signal ratio in the repeat runs, not every such curve was filed as active; inconclusive = weak or mixed curves, or effect the other way; inactive = no such curve, though single readings can be large or run the other way; the % refers to the signal ratio; note: % is set by controls: 0 for no effect and ±100 for the full control effect); conditions: GR-bla HeLa, beta-lactamase FRET ratio, dexamethasone-stimulated, 18 h; activity change, negative = inhibition: at 58.5 µM (top of the series) unless noted
Outline: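 GR-bla HeLa cells (beta-lactamase reporter under glucocorticoid response element) were pre-plated 4 h at 37 C, treated with compounds plus 5 nM dexamethasone (final) for 18 h, then read by LiveBLAzer B/G FRET fluorescence after 2 h.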

[2] = qHTS assay to identify small molecule antagonists of the androgen receptor (AR) signaling pathway - cell viability counter screen (AID 743033; note: potency is the fitted concentration of half-maximal effect; nearly all actives have a fitted effect of over 45% in size); conditions: AR-bla HEK293 viability, CellTiter-Glo luminescence, 16 h; activity change, negative = cytotoxicity: at 58.5 µM (top of the series) unless noted
[3] = qHTS assay to identify small molecule antagonists of the thyroid receptor (TR) signaling pathway - cell viability counter screen (AID 743064); conditions: GH3.TRE-Luc viability, CellTiter-Fluor, 24 h; activity change, negative = cytotoxic: at 70.3 µM (top of the series) unless noted; note: nearly all actives have a fitted effect of over 50% in size; note: potency is the fitted concentration of half-maximal effect
Outline: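 Plate GH3.TRE-Luc cells; incubate 4 h at 37 °C; add compound, then T3 to 1 nM final; incubate 23.5 h; add CellTiter-Fluor; incubate 30 min at 37 °C, 5% CO2; read fluorescence.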

[4] = target: Androgen receptor (Homo sapiens) (UniProt P10275); assay: qHTS assay to identify small molecule antagonists of the androgen receptor (AR) signaling pathway (AID 743035; active = well fitted inhibition curve with a large enough effect in the signal ratio in the repeat runs, not every such curve was filed as active; inconclusive = weak or mixed curves, or effect the other way; inactive = no such curve, though single readings can be large or run the other way; the % refers to the signal ratio; note: % is set by controls: 0 for no effect and ±100 for the full control effect); conditions: HEK293 AR-UAS-bla, R1881-stimulated, beta-lactamase FRET, 16 h; activity change, negative = inhibition: at 58.5 µM (top of the series) unless noted
Outline: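 HEK293 cells stably carrying a UAS-driven beta-lactamase reporter (AR-UAS-bla GripTite) were plated for 4 h at 37C, then given compound and the agonist R1881 and incubated 16 h. Reporter activity was read by LiveBLAzer B/G FRET fluorescence after 2 h at room temperature.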

[5] = qHTS assay to identify small molecule antagonists of the estrogen receptor alpha (ER-alpha) signaling pathway using the BG1 cell line (AID 743080; calls by dose curve;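 note: BG1 cells stimulated with 17beta-estradiol alongside compound; % is set by controls: 0 for no effect and ±100 for the full control effect; nearly all actives have a fitted effect of over 25% in size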); conditions: BG1Luc4E2 ERE-luciferase antagonist mode, luminescence; activity change, negative = inhibition: at 70.3 µM (top of the series) unless noted
Outline: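 Seeding, 24 h rest, compound transfer from DMSO, 17beta-estradiol addition, 21.5 h incubation, CellTiter-Fluor (30 min, 37 C), then ONE-Glo (30 min, room temperature): this sequence was run on BG1-Luc-4E2 reporter cells.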

[6] = qHTS assay for identifying genotoxic compounds that show differential cytotoxicity against isogenic chicken DT40 cell lines with known DNA damage response pathways - Rev3 mutant cell line (AID 743014); conditions: chicken DT40 Rev3-/- viability, CellTiter-Glo, 40 h; activity, negative = cytotoxicity: at 68.4 µM (top of the series) unless noted; note: potency is the fitted concentration of half-maximal effect; nearly all actives have a fitted effect of over 55% in size
[7] = qHTS assay for identifying genotoxic compounds that show differential cytotoxicity against isogenic chicken DT40 cell lines with known DNA damage response pathways - Rad54/Ku70 mutant cell line (AID 743015); conditions: DT40 Rad54/Ku70 mutant viability, CellTiter-Glo, 40 h; activity change, negative = cytotoxicity: at 66.8 µM (top of the series) unless noted; note: nearly all actives have a fitted effect of over 60% in size; note: potency is the fitted concentration of half-maximal effect
[8] = qHTS assay to identify small molecule antagonists of the estrogen receptor alpha (ER-alpha) signaling pathway - cell viability counter screen (AID 743074; calls by dose curve;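 note: HEK293 cells carrying ER-alpha-UAS-bla reporter stimulated with 17beta-estradiol; nearly all actives have a fitted effect of over 45% in size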; note: potency is the fitted concentration of half-maximal effect)
[9] = target: Aryl hydrocarbon receptor (Homo sapiens) (UniProt P35869); assay: qHTS assay to identify small molecule that activate the aryl hydrocarbon receptor (AhR) signaling pathway (AID 743085);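 note: HG2L7.5c1 human HepG2 liver cells with stably integrated DRE-driven firefly reporter; % is set by controls: 0 for no effect and ±100 for the full control effect; nearly all actives have a fitted effect of over 15% in size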
Outline: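 Steps: seed HepG2-AhR-luc cells; allow 5 h at 37C; pin-transfer test compound or vehicle; incubate 24 h at 37C; add viability dye (30 min, 37C) and read fluorescence; add luciferase substrate (30 min, RT) and read luminescence.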

[10] = qHTS assay for identifying genotoxic compounds that show differential cytotoxicity against isogenic chicken DT40 cell lines with known DNA damage response pathways - wild type cell line (AID 743012); conditions: DT40 wild type chicken cells viability, CellTiter-Glo, 40 h; activity change, negative = cytotoxicity: at 68.4 µM (top of the series) unless noted; note: nearly all actives have a fitted effect of over 60% in size; note: potency is the fitted concentration of half-maximal effect
Outline: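 Parental DNA repair-proficient DT40 cells, 300 per well, were pre-incubated ~0.5 h at 37 C/5% CO2, pin-dosed with compounds in DMSO, then incubated 40 h. Viability was read as CellTiter-Glo luminescence after 30 min at room temperature.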

[11] = target: Androgen receptor (Homo sapiens) (UniProt P10275); assay: qHTS assay to identify small molecule agonists of the androgen receptor (AR) signaling pathway (AID 743036; active = well fitted activation curve with a large enough effect in the signal ratio in the repeat runs, with a control signal flat, not every such curve was filed as active; inconclusive = weak or mixed curves, or effect the other way; inactive = no such curve, though single readings can be large or run the other way; the % refers to the signal ratio; note: % is set by controls: 0 for no effect and ±100 for the full control effect); conditions: HEK293 AR-UAS-bla GripTite, beta-lactamase FRET ratio, 16 h; activation: at 62.4 µM (top of the series) unless noted
Outline: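 Reporter line: GeneBLAzer AR-UAS-bla-GripTite (HEK293). Steps: plate cells, 4 h rest, add compounds, 16 h at 37C, add LiveBLAzer B/G substrate, 2 h at RT, read fluorescence.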

[12] = qHTS assay to identify small molecule antagonists of the androgen receptor (AR) signaling pathway using the MDA cell line - cell viability counter screen (AID 743041; note: nearly all actives have a fitted effect of over 45% in size; note: potency is the fitted concentration of half-maximal effect); conditions: MDA-kb2 viability, CellTiter-Fluor, 16 h, cells co-treated with R1881 androgen agonist; viability change, negative = cytotoxic: at 70.3 µM (top of the series)
Outline: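 Viability counter screen run alongside the AR antagonist reporter: cells seeded 5 h before compound, R1881 added, 16 h incubation at 37C without CO2, fluorescent CellTiter-Fluor signal quantified.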

[13] = target: Peroxisome proliferator-activated receptor gamma (Homo sapiens) (UniProt P37231); assay: qHTS assay to identify small molecule agonists of the peroxisome proliferator-activated receptor gamma (PPARg) signaling pathway (AID 743094; active = well fitted activation curve with a large enough effect in the signal ratio in the repeat runs, not every such curve was filed as active; inconclusive = weak or mixed curves, or effect the other way; inactive = no such curve, though single readings can be large or run the other way; the % refers to the signal ratio; note: % is set by controls: 0 for no effect and ±100 for the full control effect); conditions: HEK293H PPARg-UAS-bla, beta-lactamase FRET ratio, 17 h; activation: at 57 µM (top of the series) unless noted
Outline: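 GeneBLAzer PPARg UAS-bla HEK293H cells carrying a stably integrated beta-lactamase reporter were pre-incubated 5 h at 37C, then exposed to compounds in DMSO for 17 h at 37C; LiveBLAzer B/G FRET substrate was added for 1 h at room temperature and fluorescence read.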

[14] = target: Estrogen receptor (Homo sapiens) (UniProt P03372); assay: qHTS assay to identify small molecule agonists of the estrogen receptor alpha (ER-alpha) signaling pathway using the BG1 cell line (AID 743079); conditions: BG1Luc4E2 cells, ERE-luciferase agonist, 22 h; activation: at 70.3 µM (top of the series) unless noted; note: nearly all actives have a fitted effect of over 20% in size; note: potency is the fitted concentration of half-maximal effect
[15] = test system: thyroid hormone receptor (rat, GH3 cells); assay: qHTS assay to identify small molecule agonists of the thyroid receptor (TR) signaling pathway (AID 743066; calls by dose curve; note: % is set by controls: 0 for no effect and ±100 for the full control effect); conditions: GH3.TRE-Luc cells, TR agonist luciferase, 24 h; activation: at 83.9 µM (top of the series) unless noted
[16] = qHTS assay to identify small molecule antagonists of the thyroid receptor (TR) signaling pathway (AID 743065); note: % is set by controls: 0 for no effect and ±100 for the full control effect; nearly all actives have a fitted effect of over 55% in size
Outline: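 GH3.TRE-Luc rat pituitary cells carrying two TR response elements driving luciferase were plated for 4 h, given compound plus 1 nM T3 (final), and incubated 23.5 h at 37 C. ONE-Glo luminescence measured reporter inhibition; CellTiter-Fluor fluorescence tracked cytotoxicity.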

[17] = target: Estrogen receptor (Homo sapiens) (UniProt P03372); assay: qHTS assay to identify small molecule antagonists of the estrogen receptor alpha (ER-alpha) signaling pathway (AID 743069; active = well fitted curve in the direction sought with a large enough effect in the signal ratio in the repeat runs, not every such curve was filed as active; inconclusive = weak or mixed curves, or effect the other way; inactive = no such curve, though single readings can be large or run the other way; the % refers to the signal ratio; note: % is set by controls: 0 for no effect and ±100 for the full control effect); conditions: HEK293 ER-alpha-UAS-bla, beta-lactamase ratio, antagonist mode; activity, negative = inhibition: at 69.4 µM (top of the series) unless noted
Outline: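 Estradiol-stimulated ER-alpha-UAS-bla HEK293 cells, 18 hr compound exposure at 37C. LiveBLAzer B/G substrate, 2 hr RT, fluorescence read.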

[18] = qHTS assay to identify small molecule antagonists of the estrogen receptor alpha (ER-alpha) signaling pathway using the BG1 cell line - cell viability counter screen (AID 743081); conditions: BG1Luc4E2 viability, CellTiter-Fluor, 22 h; activity change, negative = cytotoxicity: at 70.3 µM (top of the series) unless noted;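 note: compound given together with 17beta-estradiol as the ER stimulus; potency is the fitted concentration of half-maximal effect; nearly all actives have a fitted effect of over 45% in size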
[19] = qHTS assay to identify aromatase inhibitors - cell viability counter screen (AID 743084); conditions: MCF-7 aro ERE viability, CellTiter-Fluor, 24 h; activity change, negative = cytotoxicity: at 70.3 µM (top of the series) unless noted;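 note: cells stimulated with testosterone during compound exposure; potency is the fitted concentration of half-maximal effect; nearly all actives have a fitted effect of over 55% in size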
[20] = qHTS assay to identify small molecule that activate the aryl hydrocarbon receptor (AhR) signaling pathway - cell viability counter screen (AID 743086)
Outline: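 HepG2-AhR-luc (HG2L7.5c1) cells, 4000/well, were preincubated 5 h at 37C, exposed to compound in qHTS format for 24 hr at 37C, then given CellTiter-Fluor for 30 min; viability was read as fluorescence in the reporter wells.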
Tags give direction and shape of the fitted curve.

Sequence of UniProt P10275 (P10275 whole entry, looked up): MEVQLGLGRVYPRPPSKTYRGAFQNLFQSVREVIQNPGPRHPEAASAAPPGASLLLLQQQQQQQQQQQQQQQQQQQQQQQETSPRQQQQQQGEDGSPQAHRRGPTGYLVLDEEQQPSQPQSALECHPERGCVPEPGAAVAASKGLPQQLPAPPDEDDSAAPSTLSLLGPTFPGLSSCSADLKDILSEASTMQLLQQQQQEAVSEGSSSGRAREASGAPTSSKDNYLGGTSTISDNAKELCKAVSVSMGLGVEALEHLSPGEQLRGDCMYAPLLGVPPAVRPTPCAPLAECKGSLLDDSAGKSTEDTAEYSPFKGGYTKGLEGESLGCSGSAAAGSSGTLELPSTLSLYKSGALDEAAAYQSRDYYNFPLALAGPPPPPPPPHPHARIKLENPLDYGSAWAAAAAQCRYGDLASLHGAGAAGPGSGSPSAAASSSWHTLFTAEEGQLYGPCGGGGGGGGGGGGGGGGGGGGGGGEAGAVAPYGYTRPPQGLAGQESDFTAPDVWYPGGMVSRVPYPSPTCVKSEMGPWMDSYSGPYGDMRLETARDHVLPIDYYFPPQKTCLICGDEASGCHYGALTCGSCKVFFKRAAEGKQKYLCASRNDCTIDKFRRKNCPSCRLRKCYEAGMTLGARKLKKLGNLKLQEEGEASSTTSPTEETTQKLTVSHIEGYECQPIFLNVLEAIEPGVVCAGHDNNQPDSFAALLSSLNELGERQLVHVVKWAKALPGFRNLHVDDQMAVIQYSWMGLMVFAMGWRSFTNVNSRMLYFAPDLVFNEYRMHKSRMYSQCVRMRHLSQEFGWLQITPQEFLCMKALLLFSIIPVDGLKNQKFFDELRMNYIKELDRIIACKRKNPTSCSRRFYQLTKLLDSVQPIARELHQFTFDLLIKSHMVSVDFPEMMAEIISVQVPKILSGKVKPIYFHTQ
Sequence of UniProt P03372 (P03372 whole entry, looked up): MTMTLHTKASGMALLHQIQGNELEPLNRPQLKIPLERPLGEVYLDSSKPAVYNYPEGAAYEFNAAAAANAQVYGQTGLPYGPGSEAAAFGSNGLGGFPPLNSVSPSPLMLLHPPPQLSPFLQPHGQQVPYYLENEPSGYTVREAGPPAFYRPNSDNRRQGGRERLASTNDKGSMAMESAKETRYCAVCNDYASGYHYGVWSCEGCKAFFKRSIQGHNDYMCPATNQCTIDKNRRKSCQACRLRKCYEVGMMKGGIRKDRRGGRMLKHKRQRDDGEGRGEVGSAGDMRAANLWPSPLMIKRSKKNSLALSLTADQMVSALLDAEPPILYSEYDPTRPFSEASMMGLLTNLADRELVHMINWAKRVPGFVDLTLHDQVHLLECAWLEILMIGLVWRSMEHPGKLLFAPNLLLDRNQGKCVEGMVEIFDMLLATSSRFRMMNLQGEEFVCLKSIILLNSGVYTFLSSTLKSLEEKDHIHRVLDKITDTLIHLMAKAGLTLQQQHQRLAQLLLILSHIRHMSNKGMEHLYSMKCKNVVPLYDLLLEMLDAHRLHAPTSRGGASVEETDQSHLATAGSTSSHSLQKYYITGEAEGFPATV
Sequence of UniProt P35869 (P35869 whole entry, looked up): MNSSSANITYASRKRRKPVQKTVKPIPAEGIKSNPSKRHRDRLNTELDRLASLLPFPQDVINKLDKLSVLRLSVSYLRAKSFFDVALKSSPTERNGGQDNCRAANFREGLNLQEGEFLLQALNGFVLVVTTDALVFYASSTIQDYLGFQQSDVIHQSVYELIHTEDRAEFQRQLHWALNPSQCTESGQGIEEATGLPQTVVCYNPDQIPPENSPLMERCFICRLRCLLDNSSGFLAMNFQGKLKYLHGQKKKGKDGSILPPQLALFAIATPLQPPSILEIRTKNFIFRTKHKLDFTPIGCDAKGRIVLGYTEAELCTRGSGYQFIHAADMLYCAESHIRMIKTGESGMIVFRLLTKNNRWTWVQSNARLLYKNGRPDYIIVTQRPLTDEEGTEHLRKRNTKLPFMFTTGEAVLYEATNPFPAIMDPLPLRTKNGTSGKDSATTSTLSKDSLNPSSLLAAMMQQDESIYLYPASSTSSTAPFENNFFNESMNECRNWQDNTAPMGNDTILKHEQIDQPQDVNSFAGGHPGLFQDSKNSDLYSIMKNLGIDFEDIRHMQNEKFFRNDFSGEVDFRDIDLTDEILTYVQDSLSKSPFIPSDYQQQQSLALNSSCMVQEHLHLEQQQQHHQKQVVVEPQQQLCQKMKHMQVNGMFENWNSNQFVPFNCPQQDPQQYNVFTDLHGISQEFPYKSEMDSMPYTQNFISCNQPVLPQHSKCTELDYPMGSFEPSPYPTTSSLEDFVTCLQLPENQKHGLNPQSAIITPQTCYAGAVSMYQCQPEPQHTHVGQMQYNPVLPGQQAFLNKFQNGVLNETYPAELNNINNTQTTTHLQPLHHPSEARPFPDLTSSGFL
Sequence of UniProt P04150 (P04150 whole entry, looked up): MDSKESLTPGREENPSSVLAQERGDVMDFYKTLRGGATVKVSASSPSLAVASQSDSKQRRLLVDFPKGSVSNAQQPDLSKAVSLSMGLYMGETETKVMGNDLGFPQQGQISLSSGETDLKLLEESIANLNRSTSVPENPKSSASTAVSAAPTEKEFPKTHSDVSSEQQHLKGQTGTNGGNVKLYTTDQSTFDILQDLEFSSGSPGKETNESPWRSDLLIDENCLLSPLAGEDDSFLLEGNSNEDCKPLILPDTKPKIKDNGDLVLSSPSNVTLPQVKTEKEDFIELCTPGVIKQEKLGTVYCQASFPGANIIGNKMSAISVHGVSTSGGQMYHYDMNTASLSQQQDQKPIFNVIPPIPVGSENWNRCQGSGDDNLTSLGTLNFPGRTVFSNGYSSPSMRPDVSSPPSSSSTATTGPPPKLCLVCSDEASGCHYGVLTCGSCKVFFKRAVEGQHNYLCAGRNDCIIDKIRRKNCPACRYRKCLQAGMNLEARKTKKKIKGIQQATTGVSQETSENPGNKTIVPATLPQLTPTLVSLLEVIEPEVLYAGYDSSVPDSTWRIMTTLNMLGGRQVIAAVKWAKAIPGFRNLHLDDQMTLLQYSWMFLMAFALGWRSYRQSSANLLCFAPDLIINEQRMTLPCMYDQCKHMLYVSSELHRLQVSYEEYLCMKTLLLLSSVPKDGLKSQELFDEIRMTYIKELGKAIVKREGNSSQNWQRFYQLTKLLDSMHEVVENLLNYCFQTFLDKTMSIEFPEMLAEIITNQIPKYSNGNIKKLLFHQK
Sequence of UniProt P37231 (P37231 whole entry, looked up): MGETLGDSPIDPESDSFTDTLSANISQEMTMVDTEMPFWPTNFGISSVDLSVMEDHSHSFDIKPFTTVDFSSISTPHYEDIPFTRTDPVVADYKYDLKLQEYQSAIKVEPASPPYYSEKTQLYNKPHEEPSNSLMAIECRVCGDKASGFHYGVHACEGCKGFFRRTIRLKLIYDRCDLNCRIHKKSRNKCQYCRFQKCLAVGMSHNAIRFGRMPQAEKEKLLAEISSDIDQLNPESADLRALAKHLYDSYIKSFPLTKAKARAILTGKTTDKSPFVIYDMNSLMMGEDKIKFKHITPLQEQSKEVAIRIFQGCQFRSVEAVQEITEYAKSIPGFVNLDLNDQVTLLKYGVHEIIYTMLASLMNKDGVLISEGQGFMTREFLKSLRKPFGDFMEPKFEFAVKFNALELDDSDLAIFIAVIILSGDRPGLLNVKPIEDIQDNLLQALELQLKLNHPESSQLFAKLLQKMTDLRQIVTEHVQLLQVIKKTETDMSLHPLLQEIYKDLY

O=C(O)c1cc(O)c2c(c1)[C@H]([C@H]1c3cc(C(=O)O)cc(O)c3C(=O)c3c(O[C@@H]4O[C@H](CO)[C@@H](O)[C@H](O)[C@H]4O)cccc31)c1cccc(O[C@@H]3O[C@H](CO)[C@@H](O)[C@H](O)[C@H]3O)c1C2=O
Potency [1]: inactive
Potency [2]: inconclusive: 0.12 µM [cytotoxic, full curve]
Potency [3]: inconclusive: 33.5 µM [cytotoxic, single point]

COC(F)(F)C(Cl)Cl
Potency [1]: inactive
activity change, negative = inhibition [4]: inconclusive: 18.4%
Potency [5]: inactive

CC[C@H]1OC(=O)C[C@@H](O)[C@H](C)[C@@H](O[C@@H]2O[C@H](C)[C@@H](O)[C@H](N(C)C)[C@H]2O)[C@@H](CCN2C[C@H](C)C[C@H](C)C2)C[C@@H](C)C(=O)/C=C/C(C)=C/[C@@H]1CO[C@@H]1O[C@H](C)[C@@H](O)[C@@H](OC)[C@H]1OC
activity change, negative = inhibition [1]: inconclusive: 6.36%
Potency [6]: inconclusive: 29.8 µM [cytotoxic, single point]
Potency [7]: inconclusive: 33.5 µM [cytotoxic, single point]
Potency [2]: inconclusive: 0.0038 µM [cytotoxic, full curve]
Potency [4]: inactive

CC[C@H](C)[C@@H]1NC(=O)[C@H](Cc2ccc(O)cc2)NC(=O)[C@@H](N)CSSC[C@@H](C(=O)N2CCC[C@H]2C(=O)N[C@@H](CC(C)C)C(=O)NCC(N)=O)NC(=O)[C@H](CC(N)=O)NC(=O)[C@H](CCC(N)=O)NC1=O
Potency [1]: inactive
Potency [3]: inactive
Potency [8]: inactive
Potency [9]: inactive

O=C(O)c1cc(N=Nc2ccc(O)c(C(=O)O)c2)ccc1O
Potency [10]: inconclusive: 26.6 µM [rising, partial curve, poor fit]
Potency [6]: inconclusive: 21.1 µM [rising, partial curve, poor fit]
Potency [11]: inactive
Potency [12]: inconclusive: 26.6 µM [cytotoxic, partial curve, poor fit]
Potency [13]: inactive

Cc1ccc(C(C)(C)c2ccc(C)cc2)cc1
Potency [1]: inactive
Potency [7]: inconclusive: 33.5 µM [cytotoxic, single point]
Potency [8]: inactive

CC1(C)S[C@@H]2[C@H](NC(=O)[C@H](NC(=O)N3CCN(S(C)(=O)=O)C3=O)c3ccccc3)C(=O)N2[C@H]1C(=O)O
Potency [4]: inactive
activation [11]: inconclusive: 36.9%
Potency [3]: inconclusive: 13.3 µM [rising, partial curve, poor fit]
Potency [14]: active: 11.9 µM
Potency [5]: inactive

CN[C@@H]1[C@@H](O)[C@@H](O[C@@H]2[C@@H](O)[C@H](OC3OC(CN)=CCC3N)[C@@H](N)C[C@H]2N)OC[C@]1(C)O (stereo partly specified)
Potency [2]: inconclusive: 2.88 µM [cytotoxic, full curve, poor fit]
Potency [15]: inactive

NCCCC[C@H](NC(=O)[C@@H]1CCCN1C(=O)[C@@H]1CSSC[C@H](N)C(=O)N[C@@H](Cc2ccccc2)C(=O)N[C@@H](Cc2ccccc2)C(=O)N[C@@H](CCC(N)=O)C(=O)N[C@@H](CC(N)=O)C(=O)N1)C(=O)NCC(N)=O
Potency [10]: inactive
Potency [16]: inactive
Potency [17]: inactive
Potency [8]: inactive
Potency [5]: inactive
Potency [18]: inconclusive: 15 µM [rising, partial curve, poor fit]

O=C(Cn1cnnn1)N[C@@H]1C(=O)N2C(C(=O)O)=C(CSc3nncs3)CS[C@H]12
Potency [7]: inactive
activation [14]: inconclusive: 12.8% [phenotype inactive]

COc1ccc(C(=O)Nc2ccccc2CCC2CCCCN2C)cc1 (stereo unspecified)
Potency [10]: inconclusive: 26.6 µM [cytotoxic, partial curve, poor fit]
Potency [2]: inconclusive: 10.7 µM [cytotoxic, partial curve, poor fit]
Potency [12]: inactive
Potency [3]: inconclusive: 26.6 µM [cytotoxic]
Potency [8]: inconclusive: 0.0021 µM [rising, full curve, poor fit]
activation [14]: inconclusive: 22.1% [phenotype inactive]
Potency [18]: active: 2.98 µM
Potency [19]: inconclusive: 21.1 µM [cytotoxic, partial curve]
Potency [20]: inconclusive: 21.1 µM [falling, partial curve, poor fit]

COc1ccc([C@@H]2CC(=O)c3c(O)cc(O[C@@H]4O[C@H](CO[C@@H]5O[C@@H](C)[C@H](O)[C@@H](O)[C@H]5O)[C@@H](O)[C@H](O)[C@H]4O)cc3O2)cc1O
activity change, negative = inhibition [4]: inconclusive: 10.9% [at 27 µM]
Potency [3]: inactive
Potency [18]: inconclusive: 12.7 µM [rising, partial curve, poor fit]

NC(=O)c1cc[n+](CC2=C(C(=O)O)N3C(=O)[C@@H](NC(=O)C(c4ccccc4)S(=O)(=O)[O-])[C@H]3SC2)cc1 (stereo partly specified)
Potency [7]: inconclusive: 14.3 µM [cytotoxic, single point]
Potency [2]: inconclusive: 0.0006 µM [cytotoxic]

CCOC(=O)[C@H](CCc1ccccc1)N[C@@H](C)C(=O)N1[C@H](C(=O)O)C[C@H]2CCCC[C@@H]21
Potency [4]: inactive
Potency [12]: inconclusive: 7.5 µM [cytotoxic, partial curve, poor fit]
Potency [9]: inactive
activation [13]: inconclusive: -14.7%

Reference: PubChem BioAssay (Tox21)
